The results in this text go back to PubChem BioAssay AID1963576 (National Center for Advancing Translational Sciences (NCATS), 2024).

Among all 46,000 compounds or so, about 60 (0.1%) were called active. Not shown: some 3% with an inconclusive outcome. The call rests on the fitted dose curve; in most records, active means well fitted inhibition curve with a large enough effect; inconclusive means small, poorly fitted or top-dose-only effect; inactive means no such curve, though single readings can be large or run the other way. The list shows a part of the results.

A short description of this experiment: Primary qHTS assay for Inhibitors of ovarian cancer metastasis using an organotypic tumor microenvironment (TME) model. Further: nearly all actives have a fitted effect of over 65% in size.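 On activity change, negative = inhibition: plate controls were DMSO wells for no effect and tomatine positive control wells for full effect.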 Particulars: SKOV3ip1-GFP adhesion/invasion on 3D omental model, fluorescence; series mostly up to 45.8 µM; activity change, negative = inhibition: at the top concentration. An outline of the steps:
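Adhesion/invasion was scored as fixed GFP-labeled SKOV3ip1 cell counts (488/509 nm), normalized to DMSO and tomatine controls. Cancer cells in serum-free medium, with four compound doses (0.36-46 umol/L), sat 2 hr at RT then 16 hr at 37 C on a 48 hr fibroblast/mesothelial/ECM culture.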
In general terms: qHTS replaces the single test concentration by a dilution series.
Regarding `Cc1ccc(C(=O)CC2(O)C(=O)N(Cc3ccccc3F)c3ccccc32)cc1` (stereo not drawn), the “activity change, negative = inhibition” value was inactive: -16.7%.

As to `CCN(c1ccccc1)c1nnc(NC(=O)Nc2ccc(Br)cc2)s1`, the “activity change, negative = inhibition” value is inactive: -3.7%.

For the molecule `Cn1cnc(S(=O)(=O)N2CCC(C(=O)NCc3ccccc3Cl)CC2)c1`, the outcome was inactive.

On to `COCc1nc2cccnc2n1C1CCN(S(=O)(=O)N(C)C)CC1`, for which the “activity change, negative = inhibition” value was inactive: 3.76%.

For the molecule `CCOc1ccc(CCNc2ncnc3onc(-c4ccc(Cl)cc4)c23)cc1OCC`, the “activity change, negative = inhibition” value is inactive: -5.27%.

Consider `CNS(=O)(=O)c1cn(CC(=O)N2CCN(c3ccccc3F)CC2)cc1S(=O)(=O)NC`, for which the molecule was classed as inactive.

Consider `CCc1ccc(OC(C)c2nc(-c3ccc(-n4cccc4)cc3)no2)cc1` (stereo not drawn), for which the “activity change, negative = inhibition” value is inactive: -14.8%.

As for `CCOC(=O)c1ccc(NC(=O)CCc2c(C)nc3c(c(C)nn3-c3ccccc3)c2C)cc1`, the “activity change, negative = inhibition” value was inactive: -0.471%.

On to `COc1cccc(C2=C(C(C)=O)Sc3nncn3N2C(C)=O)c1`, for which the “activity change, negative = inhibition” value is inactive: -17.7%.

As to `Cc1ccc(CN(Cc2ccco2)C(=O)COc2ccccc2C)cc1`, the “activity change, negative = inhibition” value was inactive: 6.56%.

As to `O=S(=O)(NCc1csc(-c2ccccc2)n1)c1cccc(F)c1`, the “activity change, negative = inhibition” value was inactive: 0.572%.

For the molecule `COc1ccc(NC(=O)C(c2ccc(C)cc2)N(C)C(=O)/C=C\c2ccc3c(c2)OCO3)cc1` (stereo not drawn), the “activity change, negative = inhibition” value was inactive: -8.85%.

Consider `OC(CCN1CCCCC1)(c1ccccc1)C1CC2C=CC1C2` (stereo not drawn), for which the “activity change, negative = inhibition” value was inactive: -2.98%.

As for `COc1ccccc1NC(c1ccc(Cl)cc1)c1nnc(-c2cccc(F)c2)o1` (stereo not drawn), the “activity change, negative = inhibition” value was inactive: 5.24%.

As for `CC(=O)c1ccc(NC(=O)CCc2c(C)nc3c(c(C)nn3-c3ccc(C)cc3)c2C)cc1`, the “activity change, negative = inhibition” value is inactive: -2.52%.

In the case of `O=C(Cn1c(SCc2cccc(F)c2)nc2cccnc21)Nc1ccc(F)c(Cl)c1`, the “activity change, negative = inhibition” value was inactive: -19.3%.

`O=C(COc1ccccc1Cl)Nc1cc(-c2ccccc2F)nn1-c1ccccc1`: the molecule was classed as inactive.

Take `CCOC(=O)c1ccccc1NC(=O)CSc1ncc(CO)n1Cc1ccc(C)cc1`: the “activity change, negative = inhibition” value was inactive: -5.08%.

Consider `Cc1nn2c(=O)cc(CN(C)c3ccccc3)nc2s1`, for which the “activity change, negative = inhibition” value is inactive: -13.9%.

Consider `O=C(CCS(=O)(=O)c1nc(-c2cccs2)cc(C(F)(F)F)n1)Nc1ccc(OC(F)(F)F)cc1`, for which the “activity change, negative = inhibition” value was inactive: 0.42%.

Turning to `COC(=O)c1ccccc1NC(=O)C1=CC(c2ccc(C)cc2)=NS(=O)(=O)N1C`, the “activity change, negative = inhibition” value was inactive: -14.9%.

On to `COc1ccc(C2c3c(oc4ccccc4c3=O)C(=O)N2Cc2ccc3c(c2)OCO3)cc1` (stereo not drawn), for which the “activity change, negative = inhibition” value is inactive: -7.26%.

Take `Cc1cc(C)cc(NC(=O)CN(c2cc(C(F)(F)F)ccc2Cl)S(=O)(=O)c2ccccc2)c1`: the outcome was inactive.

As to `O=C(CN1CCN(Cc2ccc(F)cc2)C1=O)NCc1ccccc1Cl`, the “activity change, negative = inhibition” value is inactive: -20.2%.

As to `COc1cccc(-c2nn(C)c3sc(C(=O)NCc4cc(OC)ccc4OC)cc23)c1`, the “activity change, negative = inhibition” value is inactive: 3.06%.

`COc1ccc(OC)c(NC(=O)c2cc3c(n(-c4ccc(Cl)cc4)c2=O)CC(C)(C)CC3=O)c1`: the “activity change, negative = inhibition” value was inactive: 1.57%.

Regarding `Cc1cc(C)cc(-n2c(SCC(=O)N3CCc4ccccc43)nc3c([nH]c4ccccc43)c2=O)c1`, the outcome was inactive.

Turning to `O=C(Nc1ccc(F)c(Cl)c1)N1CCN(C(=O)c2nsc3ccccc23)CC1`, the “activity change, negative = inhibition” value is inactive: -3.26%.

With `Cc1cccc(-c2nc(SCCCOc3ccccc3Cl)n3[nH]c(=O)cc3n2)c1`, the outcome was inactive.

In the case of `CCOc1ccc(OCC)c(NC(=O)C2CCCN(S(=O)(=O)c3ccc4c(c3)oc(=O)n4C)C2)c1` (stereo not drawn), the result was inactive.

Consider `CCOc1ccc(CNC(=O)Cn2c(=O)c3cccn3c3ccc(F)cc32)cc1`, for which the call was inactive.

Consider `CCN1c2ccccc2-n2cccc2C12CCN(C(=O)Nc1ccccc1C(F)(F)F)CC2`, for which the “activity change, negative = inhibition” value was inactive: -0.391%.

For `CCOc1ccc2nc(N3CCN(C(=O)CS(=O)(=O)c4ccc(F)cc4)CC3)sc2c1`, the “activity change, negative = inhibition” value is inactive: -8.64%.

For the molecule `CCn1c(C(=O)N2CCC(C(=O)N3CCN(c4cccc(C)c4C)CC3)CC2)cc2sccc21`, the “activity change, negative = inhibition” value was inactive: 12.5%.

In the case of `Cc1ccc(C)c(N2CCN(c3ncnc4c3nc3n4CCCCC3)CC2)c1`, the outcome was inactive.

Take `O=C(C1CCCN(S(=O)(=O)c2cccs2)C1)N1CCN(c2cccc(Cl)c2)CC1` (stereo not drawn): the molecule was classed as inactive.

As for `Cc1ccc(NC(=O)Cn2nnnc2-c2ccccc2N)cc1`, the “activity change, negative = inhibition” value was inactive: -3.54%.

With `Cn1nc(C(=O)N2CCN(c3ccc(Cl)cc3)CC2)c2c1-c1ccccc1SC2`, the “activity change, negative = inhibition” value is inactive: -18.7%.

Consider `O=c1c2cc3c(cc2nc2sc(Nc4ccc(F)cc4F)nn12)OCO3`, for which the “activity change, negative = inhibition” value is inactive: 4.7%.

Consider `COc1cccc(CNC(=O)CSc2ccc(-c3sc(-c4ccccc4)nc3C)nn2)c1`, for which the molecule was classed as inactive.

With `CCOc1ccc(C(=O)NCC(c2ccco2)S(=O)(=O)c2ccc(C)cc2)cc1` (stereo not drawn), the call was inactive.

On to `COc1ccc(Cl)cc1NC(=O)N1CCC(CN2CCc3ccccc3C2)CC1`, for which the “activity change, negative = inhibition” value was inactive: -4.14%.

For `NC(=O)CSc1nc2c(oc3ccccc32)c(=O)n1-c1ccccc1F`, the molecule was classed as inactive.

On to `Cn1c(=O)c2nc(SCC(=O)Nc3cc(Cl)ccc3Cl)n(C)c2n(C)c1=O`, for which the call was inactive.

Take `c1ccc(CNc2nc3ccccc3c3nc(-c4ccccc4)nn23)cc1`: the “activity change, negative = inhibition” value was inactive: 0.842%.

With `COc1ccc(NS(=O)(=O)c2cc3[nH]c(=O)c(=O)[nH]c3cc2C)cc1OC`, the outcome was inactive.

In the case of `Cc1ccc2c(=O)cc(C(=O)Nc3sc4c(c3C(=O)NCc3ccco3)CCC4)oc2c1C`, the “activity change, negative = inhibition” value is inactive: -4.42%.

Regarding `CN(C)c1ccc(C(=O)NCCCCCCC(=O)NO)cc1`, the “activity change, negative = inhibition” value was inactive: 16.1%.
